Binding signal data for 22 molecules are collected here from article PMC12136788.

The other results are listed elsewhere or left out.

The labels stand for the following.
T1: UNK ZnF1-3 (human, UniProt Q9C0B0 31-174)
T1 sequence: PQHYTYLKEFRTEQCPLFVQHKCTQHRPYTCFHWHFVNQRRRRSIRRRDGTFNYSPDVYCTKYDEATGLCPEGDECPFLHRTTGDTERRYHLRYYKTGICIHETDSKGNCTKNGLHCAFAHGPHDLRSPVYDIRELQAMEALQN

B1: chr1:225611761:225611762:-_ENSG00000143815_ENST00000272163|hu_mus|hu_hu_hu_mus_True|28_38 (ssRNA)
RNA: GGGAGUUCUACAGUCCGACGAUCCCAGGCCAUCGGCCUCUGACCACUUCACCCUCAACAAACUUCCUACUUGGCAUUUUCUAAAAUUAGUCUGGCCCAGGUUCCGGCGGUGACACGGCCACUCCAGGACAGUCACCAGCAGCCCAACAGAGGAUUGAGCAUCA
B2: chr1:225611761:225611762:-_ENSG00000143815_ENST00000272163|hu_mus|hu_hu_hu_mus_True|78_98 (ssRNA)
RNA: GGGAGUUCUACAGUCCGACGAUCCCAGGCCAUCGGCCUCUUACCACUUCACCCUCAGCAAAUUUCCUACUUGGCAUUUUCUAAAAUUAGUCUGGCCGCGCUCCGGCGGGAACUCCAGCCACUCCAGGACAGUCACCAGCAGCCCAACAGAGGAUUGAGCAUCA
B3: chr7:56126341:56126342:+_ENSG00000146731_ENST00000540286|hu_hu|motif|central (ssRNA)
RNA: GGGAGUUCUACAGUCCGACGAUCCAUAUUUCUCCUUUUAGCUCUGCGCAGAGCAACUAUGCCUUCUUUUGAAAGAGCAUCGGAGGAAAAGGGGUCAAUUCCCUUUUGAUUAAUAACAACAAAUCCUUUAUCUGAAUCGCCACACAACAGAGGAUUGAGCAUCA
B4: chr7:65419240:65419241:+_ENSG00000196715_ENST00000360768|hu_mus|FALSE|FALSE (ssRNA)
RNA: GGGAGUUCUACAGUCCGACGAUCGCUGGCCAUCAGUCUUCCUUAGGCUGCAGCUGUCGCUUCCAGGCCUCAUUCAAAUAAACUAGUCGUUUGUAAUUGAUGAUGAGGAGGAGGAAGUUCAGCACAUAUGUGGUGACGCAGAUGCAACAGAGGAUUGAGCAUCA
B5: 90616502_90616622_2646_CDS_ENSMUSG00000008200_ENSMUST00000013759|mouse|control|control (ssRNA)
RNA: GGGAGUUCUACAGUCCGACGAUCAGCUGACUGGCUAUAGAGAACUGGAGAACUACCAAUAGUGGCUGAUCUCUGAACUACCGAAGUACUCAUUUCUGGAGCCUUCCUCUUUACUGCUUUAUUGGAUGGAGGACUAGAGGCAGUCAACAGAGGAUUGAGCAUCA
B6: chr4:148551591:148551592:-_ENSMUSG00000063077_ENSMUST00000060537|mus_hu|mus_mus_mus_hu_False|28_28 (ssRNA)
RNA: GGGAGUUCUACAGUCCGACGAUCACCUGACAAAAUUAAAUAUCCCUGUAAAUUAGACAAUAAGCAGCAGGCAACAAAGUCUUUGCUUUGGAAUAUGUGCCAGGAAAAAUCAUGUUUUUUUUAGAUCUCAAGAGACAGUUCACACAACAGAGGAUUGAGCAUCA
B7: chr9:74984206:74984207:+_ENSMUSG00000034593_ENSMUST00000123128|mus_mus|motif|central (ssRNA)
RNA: GGGAGUUCUACAGUCCGACGAUCACCGAUGAUUCUGUACCUCUUGUCAAAACCAAUUUCAAUAUAUUUUCCAAACCGGCUGCGGUUAUCAUUCCUGGUUGUUUUGGCAUUUCCAAUUGACUCCAUGAUGGGGUUGGAGGCCAACAACAGAGGAUUGAGCAUCA
B8: 44083480_44084318_4348_CDS_ENSG00000142949_ENST00000372413|human|control|control (ssRNA)
RNA: GGGAGUUCUACAGUCCGACGAUCGUACUGAUCACAUUUUACCCGGGACUUCUCCUCCAGCCGUGUCAUCAUGACCACAGUGGCCGUGCGCUGUUCCCACACCAUCCUCCAGAAAUCACCCAUGGUCUCGGGCAGGGGGCCCUGCAACAGAGGAUUGAGCAUCA
B9: chr19:38862730:38862731:-_ENSMUSG00000024999_ENSMUST00000025963|mus_mus|FALSE|FALSE (ssRNA)
RNA: GGGAGUUCUACAGUCCGACGAUCUUUGUAAGUCAUUUCUACAAUGAUAAUAGCUAUUAUAUAAAAUAGUUCUUUAUAACUAUUUAUAAACAUAUACAGUUUUUAUCUGUAAGAAUUUAAGGUGGGCGGUGGUGGCGCACGUCUCAACAGAGGAUUGAGCAUCA
B10: chrX:98862621:98862622:+_ENSMUSG00000034160_ENSMUST00000044475|mus_hu|mus_mus_mus_hu_False|8_48 (ssRNA)
RNA: GGGAGUUCUACAGUCCGACGAUCCUGCAUCUCCUUUAGAGUGUUUCCCAUAUUAGAGUAGGCAUCAGCAAAGGUAGGACUGAUUCGUAUGGCUUCUUUAUAAUGCAUCAGAGCUUCCUGCAGUUUUCCCUGCUGUUGCAGUACCAACAGAGGAUUGAGCAUCA
B11: chr11:46405157:46405158:+_ENSG00000110492_ENST00000395566|hu_hu|hu_hu_hu_mus_False|28_78 (ssRNA)
RNA: GGGAGUUCUACAGUCCGACGAUCCCCUCCCCACUUUGGGCACUUGGUGUGGGCGUGAAGGCAGGGCCGUGAUUGACAGAGCUGACAGGAAGACAAAAGGCACUGGUGGGUCACAUCUUGGGCCUGUGGGAGAGGAGGGCUCCGCAACAGAGGAUUGAGCAUCA
B12: chr13:42874254:42874255:+_ENSG00000023516_ENST00000025301|hu_mus|FALSE|FALSE (ssRNA)
RNA: GGGAGUUCUACAGUCCGACGAUCUUCACUAGUAUCUGUUUGGCAAAACCAUUCAGCAGGAGUACAGCUUCCAGGAGGACUAAAAGCUGAGGUUCGAAUAGGGCUGAACAAGCCACUAUCCUCUGAUGUCAUCACCGGACGAGGCAACAGAGGAUUGAGCAUCA
B13: chr22:19452774:19452775:-_ENSG00000070010_ENST00000399523|hu_hu|hu_hu_hu_mus_False|1_18 (ssRNA)
RNA: GGGAGUUCUACAGUCCGACGAUCCUUCUCAUUGUAGUUGAUAGCAAUCACAUCUCCAGUCGUCAGACAGGCGAAGUUUCUCAAUGCAUUUUCUAAUACCGCUUUAGGGUUGGUAAUGUCCAGGAAGUCUGGGCUCUGAGGUUGCAACAGAGGAUUGAGCAUCA
B14: 43428950_43429070_1961_CDS_ENSG00000052841_ENST00000039989|human|control|control (ssRNA)
RNA: GGGAGUUCUACAGUCCGACGAUCGCCGUAAUGAAUCAAAAGGUUGGCCAAGUUGACAAGAGGAACAUCUUGGUAUUGAAGUGGAGCUAAAUUCAAAGCCCUCUGAAGACAGGCAAUAGCAAAAGUGCUAUUUCCUACUGCUCUCAACAGAGGAUUGAGCAUCA
B15: chr19:8913615:8913616:-_ENSMUSG00000071658_ENSMUST00000096259|mus_hu|mus_mus_mus_hu_False|38_38 (ssRNA)
RNA: GGGAGUUCUACAGUCCGACGAUCAGGGUACCAAAACCUUCUGCCUGAAAUGGGUGCCCCACCCAGUAGGGAGUUGCAGCUGAAAGUAUCUGAUGCACUGACAGUUACUAUACGAAAGGAGGCCCCUGGGGAGGGCCAGGCCAGCAACAGAGGAUUGAGCAUCA
B16: chr19:5492702:5492703:+_ENSMUSG00000056201_ENSMUST00000116560|mus_mus|FALSE|FALSE (ssRNA)
RNA: GGGAGUUCUACAGUCCGACGAUCAUAGGUUGCAUCAUAGAGUGCAUAGCGGCAGUCCUUGUCUGGCAGCAUCUUGACAAAAGUGGUGUAGGGGUCGUCCACAGUCUGCCCCACAUCUCCUACCAGGAUCUCCUUGCCCUCCUCCAACAGAGGAUUGAGCAUCA
B17: 91077349_91077469_131_5pUTR_ENSMUSG00000035232_ENSMUST00000045748|mouse|control|control (ssRNA)
RNA: GGGAGUUCUACAGUCCGACGAUCACCGCCGCCUAGCCGCGAGGAGGAGGCGGCGCCGGCGGGGCUUUACCUCUACCUGGGGCUCGGCCUUGGCGCCAGCAGCUGCUCGCCUGCCGCGACACCUACACAAGUACCGGGCAGCAGCAACAGAGGAUUGAGCAUCA
B18: chr10:60895279:60895280:-_ENSMUSG00000020091_ENSMUST00000020288|mus_mus|motif|central (ssRNA)
RNA: GGGAGUUCUACAGUCCGACGAUCACUGGAAGAUGUUUUGUUAAAAAAGUUGUAGUUCAAAAUUGUACUGAAAACUUAUCGGAAAAUAGGUCUGUAGUCAUCUUAAAAAUAAAAGGUCUCUCCUCUGAUAAGGAGAGACUGAUACAACAGAGGAUUGAGCAUCA
B19: 32615364_32616838_524_CDS_ENSMUSG00000022797_ENSMUST00000023486|mouse|control|control (ssRNA)
RNA: GGGAGUUCUACAGUCCGACGAUCCUGCUUGAUGGUGUCAGCAAACUCUAUGGAGUUCAACUUCUCUGACAACAGUGUUUUGAGGUCUGCCCAAUAUAAGCGAGAUGAUGUAGGAACAUCCUCUGUUUCCAUGGUUUCUGACUUCAACAGAGGAUUGAGCAUCA
B20: chrX:71549762:71549763:+_ENSMUSG00000019087_ENSMUST00000019231|mus_mus|mus_mus_mus_hu_False|68_88 (ssRNA)
RNA: GGGAGUUCUACAGUCCGACGAUCAAACCCGUGUACUUCUUAUUGUUACAUCACCCCCACCAGAAAAAAAACAUAACAGCCAAGCAGGACAGACAGUUAAGUAGUACUUCCACACUCCCAAACUCAGGGAGCCCUAUAACCUUACAACAGAGGAUUGAGCAUCA
B21: chr19:56882518:56882519:-_ENSMUSG00000035173_ENSMUST00000118592|mus_hu|FALSE|FALSE (ssRNA)
RNA: GGGAGUUCUACAGUCCGACGAUCCUGAGAAAGCUGCUUAAUUUUGUUAGUGUUUUUCUCAAGUUCCUUAUUUGCAUCUCUAAGUUUUUUCUCAAGUGUCUCUUUUUCCUUUCGAAGAUCUAAAGAUUCCUUCUCACCUCUUACCAACAGAGGAUUGAGCAUCA
B22: chr1:60041781:60041782:+_ENSMUSG00000041040_ENSMUST00000036540|mus_hu|mus_mus_mus_hu_False|28_58 (ssRNA)
RNA: GGGAGUUCUACAGUCCGACGAUCAAGUUUACAAUAGUAAAGUAAAUGCAGUAGUGGCAAAUUUUCUUUUAUUUUCCUUCCUAAAAGAAAAUCUUUAUAACCCAGUCCAAUCCCAGAACAUAGUGAAAGCUAUAAAUUCUGACUCAACAGAGGAUUGAGCAUCA

For this assay, the target named is T1, UNK ZnF1-3. Description: nsRBNS (natural sequence RNA bind-n-seq); RBNS binding buffer (assumed for nsRBNS): 25 mM Tris pH 7.5, 150 mM KCl, 3 mM MgCl2, 0.01% Triton X-100, 500 ug/ml BSA, 20 U/ml SUPERase-In, 4 C; UNK is unkempt and MSI1 is Musashi-1; names of the RNAs are library labels; protein concentration not given here; high values mean tight binding.
For B1, the binding signal stood at 1.11 enrichment R. With B2 the figure was 1.34 enrichment R; with B3, 1.62 enrichment R; with B4, 0.879 enrichment R. With B5 the figure was 1.74 enrichment R; with B6, 1.09 enrichment R; with B7, 0.613 enrichment R. To B8 belongs 0.815 enrichment R. For the molecule B9, the binding signal was 1.32 enrichment R. To B10 belongs 0.933 enrichment R; to B11, 1.75 enrichment R. For B12, the binding signal was found to be 1.26 enrichment R.

In turn, B13 came in with a binding signal of 0.763 enrichment R. With B14 the figure was 1.12 enrichment R; with B15, 1.04 enrichment R. To B16 belongs 1.59 enrichment R; to B17, 0.439 enrichment R. To B18 belongs 0.797 enrichment R. Consider B19, for which the binding signal is 0.522 enrichment R. With B20 the figure was 2.15 enrichment R; with B21, 0.419 enrichment R. To B22 belongs 0.59 enrichment R.
